Consider one compound from patent publication US12138293B2 (priority 2020, dated 2024).

Structures are written as SMILES. Residues, ends and D or L forms follow the SMILES beside them.

For the data set the following is noted: 0.9% NaCl, all concentrations (100 μM to 10,000 μM). As to the method:
The excipients shown below in Table 14 were used to prepare formulations containing aCT1 peptide at concentrations ranging from 100 μM to 10,000 μM, and the solubility and potential for effective delivery to the eye were tested. Specifically, formulations containing NaCl, polymer hydroxypropyl methylcellulose (HPMC), Pluronic® F-127 (PF-127), hydroxyethylcellulose (HEC), and carboxymethylcellulose (CMC) were compared.

On to `CC[C@H](C)[C@H](NC(=O)[C@H](CCC(=O)O)NC(=O)[C@H](CC(C)C)NC(=O)[C@H](CC(=O)O)NC(=O)[C@H](CC(=O)O)NC(=O)[C@@H]1CCCN1C(=O)[C@H](CCCNC(=N)N)NC(=O)[C@@H]1CCCN1C(=O)[C@H](CCCNC(=N)N)NC(=O)[C@H](CCCCN)NC(=O)[C@H](CCCCN)NC(=O)[C@H](Cc1c[nH]c2ccccc12)NC(=O)[C@@H]1CCCN1C(=O)[C@H](CCCCN)NC(=O)[C@H](CCCNC(=N)N)NC(=O)[C@H](CCCNC(=N)N)NC(=O)[C@H](CC(N)=O)NC(=O)[C@@H]1CCCN1C(=O)[C@H](Cc1ccccc1)NC(=O)[C@H](Cc1c[nH]c2ccccc12)NC(=O)[C@@H](NC(=O)[C@H](CCCCN)NC(=O)[C@@H]1CCCN1C(=O)[C@H](CCC(N)=O)NC(=O)[C@H](CCCNC(=N)N)NC(=O)CCCCCNC(=O)CCCC[C@@H]1SC[C@@H]2NC(=O)N[C@@H]21)[C@@H](C)CC)C(=O)O` [aCT1, RQPKIWFPNRRKPWKK RPRPDDLEI] (HELM PEPTIDE1{[O=C1N[C@H]2[C@H](CS[C@H]2CCCCC(=O)[*:2])N1].[O=C(CCCCCN[*:1])[*:2]].R.Q.P.K.I.W.F.P.N.R.R.K.P.W.K.K.R.P.R.P.D.D.L.E.I}$$$$V2.0; N-terminus and C-terminus assumed), for which the Solubility in saline result is recorded as “soluble in saline at all concentrations”.
